Assay results reported in patent publication US20230219969A1 (priority 2020, published 2023).
Read-outs that look alike come from different tables or passages of the source.

Assays:
5HT2A [1] = format: cell-based; conditions: agonist mode, relative to positive control 5-HT at 100 uM
5HT2A [2] = conditions: antagonist mode (Table 8), inhibition of 5HT response, 5-HT at 100 nM

Row | SMILES | 5HT2A Agonist mean @ 100 nM (%) (5HT2A [1]) | 5HT2A Agonist mean @ 10 μM (%) (5HT2A [1]) | 5HT2A Agonist mean @ 100 μM (%) (5HT2A [1]) | 5HT2A Agonist mean @ 100 nM (%) (5HT2A [2]) | 5HT2A Agonist mean @ 10 μM (%) (5HT2A [2]) | 5HT2A Agonist mean @ 100 μM (%) (5HT2A [2])
1 | COc1cnc2c(ccn2CCN(C)C)c1 [Example 5, 2-(5-methoxy-1H-pyrrolo[2,3-b]pyridin-1-yl)-N,N-dimethylethan-1-amine] | B (does not activate 5HT2A sensor assay in agonist mode) | B (does not activate 5HT2A sensor assay in agonist mode) | B (does not activate 5HT2A sensor assay in agonist mode) | C (inhibits 5HT response by < 75%) | C (inhibits 5HT response by < 75%) | A (inhibits 5HT response by > 100%)
2 | CN(C)CCn1ccc2cncnc21 [Example 6, N,N-dimethyl-2-(7H-pyrrolo[2,3-d]pyrimidin-7-yl)ethan-1-amine] | B (does not activate 5HT2A sensor assay in agonist mode) | B (does not activate 5HT2A sensor assay in agonist mode) | B (does not activate 5HT2A sensor assay in agonist mode) | C (inhibits 5HT response by < 75%) | C (inhibits 5HT response by < 75%) | A (inhibits 5HT response by > 100%)
3 | COc1ccc2c(c1)CCN2CCN(C)C [Example 8, 2-(5-methoxyindolin-1-yl)-N,N-dimethylethan-1-amine] | B (does not activate 5HT2A sensor assay in agonist mode) | B (does not activate 5HT2A sensor assay in agonist mode) | B (does not activate 5HT2A sensor assay in agonist mode) | C (inhibits 5HT response by < 75%) | C (inhibits 5HT response by < 75%) | C (inhibits 5HT response by < 75%)
4 | COc1ccc2c(ccn2CCN(C)C)n1 [Example 3, 2-(5-methoxy-1H-pyrrolo[3,2-b]pyridin-1-yl)-N,N-dimethylethan-1-amine] | B (does not activate 5HT2A sensor assay in agonist mode) | B (does not activate 5HT2A sensor assay in agonist mode) |  | C (inhibits 5HT response by < 75%) | C (inhibits 5HT response by < 75%) | 
5 | COc1cc2ccn(CCN(C)C)c2cn1 [Example 4, 2-(5-methoxy-1H-pyrrolo[2,3-c]pyridin-1-yl)-N,N-dimethylethan-1-amine] | B (does not activate 5HT2A sensor assay in agonist mode) | B (does not activate 5HT2A sensor assay in agonist mode) | A (activates 5HT2A sensor assay in agonist mode) | C (inhibits 5HT response by < 75%) | C (inhibits 5HT response by < 75%) | A (inhibits 5HT response by > 100%)
